# Measurements from PubChem BioAssay AID1240 (Sanford-Burnham Center for Chemical Genomics, 2008).
# Out of some 50,000 compounds screened, about 800 (1.6%) showed an effect of 50% or more. The list shows a part of the results.
# Target: Bcl-2-like protein 10 (Homo sapiens) (UniProt Q9HD36)
# Assay: Phenotype converters, Bcl-B/TR3 peptide binding displacement, primary biochemical FP (AID 1240);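 further: 0% = Bcl-B with tracer peptide and DMSO and 100% = tracer peptide lacking Bcl-B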
# Details: GST-Bcl-B / FITC-TR3 peptide fluorescence polarization; stronger effect = higher value; compound at 3.75 mg/L
# UniProt Q9HD36, sequence (Q9HD36 whole entry, looked up): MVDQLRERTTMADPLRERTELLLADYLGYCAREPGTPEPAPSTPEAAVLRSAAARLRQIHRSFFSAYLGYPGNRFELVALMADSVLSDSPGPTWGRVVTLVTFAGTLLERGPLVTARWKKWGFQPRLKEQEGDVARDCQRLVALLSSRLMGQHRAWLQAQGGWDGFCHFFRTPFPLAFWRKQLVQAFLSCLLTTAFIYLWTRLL
row,SMILES,displacement [%]
1,COCCN1C(=O)C(=O)/C(=C(/O)c2ccccc2)C1c1ccccc1OC (stereo unspecified),6.3
2,NS(=O)(=O)c1ccc(NC(=S)NC(=O)c2ccccc2)cc1,9.3
3,CC1CCc2c(sc(NC(=O)c3ccccc3Br)c2C(=O)OC(C)C)C1 (stereo unspecified),-5.9
4,c1ccc(CN2C3=NCCN3c3ccccc32)cc1,-5.7
5,O=C(CCc1ccccc1)Nc1cccc(Br)c1,-8.2
6,CCOc1ccc(/C=C(/C#N)C(=O)Nc2cccc(Br)c2)cc1,1.6
7,O=C(NC(CO)(CO)CO)c1cccc(-c2ccc(O)cc2)c1,13.2
8,c1ccc(-c2nc(NC3CCCCC3)cc(-n3cccn3)n2)cc1,-8.4
9,CC1CCc2c(sc(NC(=O)c3ccccc3Cl)c2C(=O)Nc2ccccc2Cl)C1 (stereo unspecified),-4.1
10,O=C(COc1ccccc1)Nc1ccc(-c2nc3ncccc3o2)cc1,35.8
11,O=C1C2C3C=CC(C3)C2C(=O)N1/N=C/c1ccc(-c2ccc(Cl)c([N+](=O)[O-])c2)o1 (stereo unspecified),6.3
12,CS(=O)(=O)N(Cc1ccccc1)c1ccc(C(=O)Nc2ccc3c(c2)OCO3)cc1,6.3
13,Cc1ccc(NC(=O)c2cc(F)c(F)cc2Cl)nc1,-0.6
14,COc1ccc(-c2noc(-c3cccc(Br)c3)n2)cc1,0
15,C=C(C)Cn1c(SCC(=O)O)nnc1-c1ccc([N+](=O)[O-])cc1,-10.9
16,O=C(Nc1c(-c2ccccc2)c2cc(Br)ccc2[nH]c1=O)c1cccc(Cl)c1,1.7
17,c1cnc2cc3c(cc2n1)Nc1nonc1N3,0.9
18,Cc1n[nH]c(C)c1Sc1ccccc1N=Cc1cccc(Cl)c1,-7.6
19,COc1cc(CN=Cc2c(O)n(-c3ccccc3Cl)c(=O)[nH]c2=O)cc(OC)c1,3.2
20,CCOc1cc(OCC)cc(C(=O)Nc2cccc(OC)c2)c1,8.5
21,Cc1cccc(OC(=O)c2cccc([N+](=O)[O-])c2)c1,-2.3
22,CCn1c2ccccc2c2cc(C=Nc3ccc(OC(F)(F)F)cc3)ccc21,5.5
23,Cc1ccc(N2C(=O)/C(=C/c3cc(C)n(C)c3C)C(=O)NC2=S)cc1,97

row,SMILES,displacement [%]
1,COc1cccc(C2/C(=C(\O)c3ccc(Br)cc3)C(=O)C(=O)N2c2ccccc2)c1 (stereo unspecified),-7.2
2,Cc1cc(C)cc(N2C(=O)NC(=O)/C(=C\c3ccc(N(C)C)o3)C2=O)c1,-29.4
3,CCN(CC)CCCOc1cccc(Cl)c1,6.9
4,Cc1[nH]n(-c2ccc(Cl)cc2)c(=O)c1C=Nc1ccc(S(=O)(=O)N2CCOCC2)cc1,-0.9
5,Cc1ccc(-c2nc3ccccc3o2)cc1NC(=O)COc1ccccc1[N+](=O)[O-],-7.1
6,O=C1CCCC2=C1C(c1cccc([N+](=O)[O-])c1)C1C(=O)c3ccccc3C1=N2 (stereo unspecified),-7.7
7,CCN(CC)S(=O)(=O)c1cc(C(=O)NCc2ccccc2)ccc1Cl,-10.4
8,COc1cc(NC(=O)c2cc(-c3cc(C)ccc3C)nc3ccccc23)c(OC)cc1Cl,18
9,CSCCNC(=O)c1ccc(C(C)(C)C)cc1,-1
10,S=c1n(CN2CCOCC2)nnn1-c1ccccc1,-5.3
11,Cc1ccc(S(=O)(=O)N/N=C/c2sccc2C)cc1,-0.4
12,COc1cccc(C(=O)Nc2ccccc2C(F)(F)F)c1,3.9
13,Cc1cccc(N2CCN(S(=O)(=O)c3ccc(F)cc3)CC2)c1C,-2.1
14,CC(=O)NC(c1ccc2c(c1)OCO2)c1ccc2cccnc2c1O (stereo unspecified),-12.8
15,COc1ccc(NC(=O)CN(c2ccc(C)cc2)S(C)(=O)=O)c(OC)c1,13.3
16,COc1ccc(S(=O)(=O)N(CC(=O)Nc2cccc(Cl)c2C)c2cc(C)cc(C)c2)cc1OC,-3.4
17,O=S(=O)(c1ccc2ccccc2c1)n1nnc2ccccc21,10
18,O=C(C(Sc1ccccc1)c1ccccc1)N1CCN(c2ccc(F)cc2)CC1 (stereo unspecified),7.1
19,Cc1ccc2[nH]c(C(=O)N/N=C/c3ccc(O)cc3O)c(-c3ccccc3)c2c1,24.1
20,CC(C)(C)N1C(=O)c2ccc(C(=O)Nc3ccc(I)cc3C(=O)O)cc2C1=O,-4
21,O=C(/C=C/c1ccc([N+](=O)[O-])cc1)NCCSCc1ccccc1Cl,-11.8
22,CC1(C)CC(=O)C(C2COC3=C2C(=O)CC(C)(C)C3)C(=O)C1 (stereo unspecified),-0.8
23,Cc1cc(OCC(=O)Nc2ccc(-c3nc4ncccc4o3)cc2)ccc1Cl,27.1

row,SMILES,displacement [%]
1,Cc1cccc(C(=O)N2N=C3CCCCCC3C2(O)C(F)(F)F)c1O (stereo unspecified),15.1
2,CC1(C)Oc2ccc3ccc(=O)oc3c2/C(=N\O)C1=O,6
3,CCOC(=O)c1c(N)sc(C(=O)Nc2ccccc2C(F)(F)F)c1C,-0.3
4,Cc1cc(C)cc(NC(=O)c2c(C)nc3ccccn23)c1,-3.9
5,COC(=O)c1ccccc1NC(=O)c1oc2ccc(C)cc2c1C,4.6
6,C(#Cc1ccc2noc(-c3ccccc3)c2c1)c1ccccc1,44.1
7,CCOC(=O)C1=C(C)N=c2s/c(=C/c3ccc(F)cc3)c(=O)n2C1c1cccc([N+](=O)[O-])c1 (stereo unspecified),7.1
8,NC(=O)c1cc(NC(=O)c2cccs2)c(Cl)cc1Cl,3.2
9,Cc1cc(C)c2[nH]c(O)c(N=NC(=O)c3cccc([N+](=O)[O-])c3)c2c1,-0.6
10,CC(=O)N1CCN(c2ccc(NC(=O)c3ccccc3Cl)cc2)CC1,17.4
11,Cc1cccc(NC(=O)C2COc3ccccc3O2)c1 (stereo unspecified),-5.9
12,COC(=O)C(C)Oc1ccc2ccc(=O)oc2c1 (stereo unspecified),26.4
13,CNc1nc(-c2ccccc2O)nc(-c2ccccc2O)n1,-9.2
14,CCOc1ccc2nc(SCC(=O)Nc3cccc(C)c3)sc2c1,6.5
15,CC1=C(C(=O)Nc2ccc(C)cc2)C(c2ccc(C(C)C)cc2)NC(=S)N1 (stereo unspecified),8.7
16,O=C(CCCN1C(=O)/C(=C/c2ccccc2)SC1=S)Nc1nccs1,11.2
17,O=C(NC(=S)Nc1ccc([N+](=O)[O-])cc1O)c1ccc(Br)cc1,6.1
18,O=c1[nH]c(/C=C/c2ccc(O)cc2)nc2ccccc12,16.2
19,COCCNCC(=O)NCC12CC3CC(CC(C3)C1)C2,-14.7
20,CCOC(=O)c1ccccc1NC(=O)COc1ccccc1,3.4
21,CCCCCOC(=O)CCCN1C(=O)S/C(=C/c2ccc(OC)cc2)C1=S,-2.2
22,CCOC(=O)CONC(=NCc1ccccc1)c1nonc1N,3.6
23,O=[N+]([O-])c1ccc(-c2nnc(-c3ccc(Br)o3)o2)cc1,9.5

row,SMILES,displacement [%]
1,O=[N+]([O-])c1ccc(-c2ncccc2O)cc1,11.9
2,O=C(c1ccccc1)c1cccc(NC(=O)C2CCCCC2)c1,-0.3
3,Cc1cccc(-n2c(C)cc(/C=N/NC(N)=O)c2C)c1,-3
4,O=C(Nc1ccc(N2CCOCC2)cc1)c1ccccc1Cl,7.2
5,CC1=C(C(=O)OCCc2ccccc2)C(c2cccs2)NC(=O)N1 (stereo unspecified),12.3
6,O=C1c2ccccc2C(=O)N1CCCc1nc2ccccc2c(=O)n1-c1ccncc1,4.7
7,COc1cc(C2NC(=S)NC(C)=C2C(=O)Nc2ccccc2)cc(OC)c1OC (stereo unspecified),8.6
8,COc1ccc(Cl)cc1NC(=O)C1=C(C)NC(=O)NC1c1ccccc1F (stereo unspecified),5.8
9,O=C1/C(=C\c2cccc([N+](=O)[O-])c2O)SC(=S)N1c1ccccc1,1.8
10,CN1C(=O)/C(=C/c2cc(Br)c(Br)o2)SC1=S,17.3
11,Cc1cc(/C=N/NC(=O)Cn2c3ccccc3c(=O)c3ccccc32)c(C)n1-c1ccccc1,-11.8
12,CC(=O)Oc1cccc(NC(=O)c2cccc(C(=O)Nc3cccc(OC(C)=O)c3)c2)c1,-0.3
13,COc1ccc(NC(=O)Cn2nc(C(F)(F)F)c(Cl)c2C)cc1OC,7.1
14,Nc1nonc1-n1nnc(CN2CCOCC2)c1CN1CCOCC1,4.4
15,CC(=O)c1ccc(NC(=O)c2cnccn2)cc1,37.3
16,COc1ccccc1-c1cc(C)nc(N)c1C#N,2.2
17,Cc1cc(Br)ccc1N1C(=O)/C(=C/c2cc(C)n(C)c2C)C(=O)NC1=S,3.9
18,CC(=O)Nc1ccc(S(=O)(=O)Nc2ccc(Nc3ccccc3)cc2)cc1,-5.9
19,Cc1ccc(-c2csc(/C(C#N)=C/c3sccc3C)n2)cc1C,11.7
20,COCCOC(=O)c1ccc(NC(=O)C2COc3ccccc3O2)cc1 (stereo unspecified),-1.9
21,C/C(=N/NC(=O)CNc1ccccc1C)c1ccc(Br)cc1,-5.5
22,COc1ccccc1C(=O)NC1CC(C)(C)NC(C)(C)C1,-11.3
23,O=c1cc(-c2ccc([N+](=O)[O-])cc2)nc2cc(-c3cccs3)[nH]n12,49.7

row,SMILES,displacement [%]
1,CCn1c(C)nc2c(I)c(O)ccc21,2.8
2,Cc1cc(C)nc(/N=C(/N)Nc2ccccc2C(F)(F)F)n1,4.8
3,CCOc1ccc2nc(NC(=O)c3ccccc3-c3ccccc3C(=O)O)sc2c1,-12.3
4,O=C(COc1ccc(Cl)cc1)NNC(=O)Cc1ccc([N+](=O)[O-])cc1,-11.3
5,Cc1nn(-c2ccccn2)c(C)c1Oc1ccccc1O,-7.2
6,CN(C)Cn1c(O)c(N=NC(=O)c2cccnc2)c2ccccc21,-5.2
7,CCCCOC(=O)c1ccc(NC(=S)NC(NC(C)=O)C(Cl)(Cl)Cl)cc1 (stereo unspecified),-10.6
8,CCC1=NN(C(=O)Cc2ccc([N+](=O)[O-])cc2)C(O)(C(F)(F)F)C1 (stereo unspecified),6.6
9,COc1ccc(CN2CCN(Cc3ccncc3)CC2)cc1Br,0.4
10,COc1ccc(C2=C/C(=C/c3cccs3)C(=O)O2)cc1,7.8
11,CCOC(=O)/C=C/COc1ccc2oc(-c3ccccc3)c(C(=O)OCC)c2c1,8.8
12,Cc1cccc(NC(=O)C(=O)NCCCO)c1C,4.2
13,O=C(O)c1ccccc1C(=O)c1ccc(Cl)c(N2C(=O)C=CC2=O)c1,2.6
14,CC(CNC(=O)C(c1ccccc1)c1ccccc1)c1ccccc1 (stereo unspecified),-2.3
15,O=C(CN1C(=O)c2ccccc2S1(=O)=O)NC(Nc1ccc(I)cc1)C(Cl)(Cl)Cl (stereo unspecified),11.2
16,COCCN1C(=O)/C(=C2/C(=O)N(C)c3ccccc32)SC1=S,-59.9
17,CC(=O)N/N=C/c1cccc(C(F)(F)F)c1,3.2
18,COCCNC(=O)C(=O)Nc1ccccc1F,-11.9
19,COc1ccccc1-n1cnc2cc(NC(C)=O)ccc21,14.7
